Results from the RNAGym collection of RNA variant scans (doi:10.1093/nar/gkz1192).
Read counts are not given, so values of variants with three or more changes are uncertain.

B1: CPEB3 Ribozyme (parent)
chain: UAACAGGGGGCCACAGCAGAAGCGUUCACGUCGCAGCCCCUGUCAGAUUCUGGUGAAUCUGCGAAUUCUGCUGUAUAUCUC

Variants of: B1
Assay: self-cleavage, relative activity (ratio to wild type); higher = more cleavage; in vitro, sequencing
Procedure, shortened: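 CPEB3 self-cleaving ribozyme mutant libraries were made by rounds of error-prone PCR, barcoded, and transcribed in vitro with T7 RNA polymerase for 5 hours at 37°C. Cleavage occurred during transcription and a 15 min DNase I step before EDTA stop. RNAs were reverse transcribed with template switching and Illumina-sequenced, with DNA sequencing mapping barcodes to variants. Relative activity is the variant's cleaved/total read fraction divided by wild type's (minimum 5 reads), averaged across three batches.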
For UAACAGGGGGCCACAGCAGAAGCGCACACGUCGCAGCCCCUGUCAGAUUCUGGUGAAUCUGCGAAUUCUGCUGUAUUUCUC [U25C U26A A77U], the self-cleavage was 0.22. For UAACAGGGGGCCACAGCAGAAGCGCACACGUCGCAGCCCCAGUUAGAUUCUGGUGAAUCUGCGAAUUCUGCAGUAUAUCUC [U25C U26A U41A C44U U72A], the self-cleavage was 0.1. Variant UAACAGGGGGCCACAGCAGAAGCGCACACGUCGCAGCCCCUGCCAGAUUCUGGUGAAUCCGCGAAUACUGCUGUAUAUCUC [U25C U26A U43C U60C U67A] has a self-cleavage of 0.07. In the case of UAACAGGGGGCCACAGCAGAAGCGCCCGCGUCGCAGCCCCUGUCAGAUUCUGGUGAAUCUGCGAAUUCUGCUGUAUAUCUC [U25C U26C A28G], the self-cleavage is reported as 0.35. For UAACAGGGGGCCACAGCAGAAGCGCCCACGUCGCUGCCCCUGCCAGAUUCUGGCGAAUCUGCGAAUUCUGCUGUAUAUCUC [U25C U26C A35U U43C U54C], the self-cleavage was 0.35. UAACAGGGGGCCACAGCAGAAGCGCCCACGUCGCAGCCCCUGUCGGAUUCUGGUGAAUCUGCGAAUUCUGCUGUAUAUCUC [U25C U26C A45G] gave a self-cleavage of 0.19. UAACAGGGGGCCACAGCAGAAGCGCCCACGUCGCAGCCCCUGUCGGAUUCUGGUGACUCUGCGAAUUCUGCUCUAUAUCUC [U25C U26C A45G A57C G73C] showed a self-cleavage of 0.12. UAACAGGGGGCCACAGCAGAAGCGCCUACGUCGCAGCCCCUGUCAGAUUCUGGUGAAUCUGCGAAUUCUGCUGUAUACCUC [U25C U26C C27U U78C] showed a self-cleavage of 0.18. Variant UAACAGGGGGCCACAGCAGAAGCGCCCACGUCGCAGCCCUUGUCAGAUUCUGGUGAAUCUGCGAAUUCUGCAGUAUAUCUC [U25C U26C C40U U72A] has a self-cleavage of 0.21. UAACAGGGGGCCACAGCAGAAGCGCCCACGUCGCAGCCCCUGUCAGAUUCUGGUGAAUUUGCGAAUUCUGCUGUACAUCUC [U25C U26C C59U U76C] gave a self-cleavage of 0.2. Variant UAACAGGGGGCCACAGCAGAAGCGCCCACGUCACAGCCCCUGUCAGAUUCUGGUGAAUCUGCGAAUUCUGCAGUAUAUCUC [U25C U26C G33A U72A] has a self-cleavage of 0.17. With UAACAGGGGGCCACAGCAGAAGCGCCCACGCCGCGGCCCCUGUCAGAUUCUGGUGAAUCUGCGAAUUCUGCUGUAUAUCUC [U25C U26C U31C A35G] the self-cleavage was 0.11. UAACAGGGGGCCACAGCAGAAGCGCCCACGGCGCAGCCCCUGUCAGAUUCUGGUGAAUCUGCGAAUACUGCUGUAUAUCUC [U25C U26C U31G U67A] showed a self-cleavage of 0.08. In the case of UAACAGGGGGCCACAGCAGAAGCGCCCACGUCGCAGCCCCAGUCGGAUUCUGGUGAAUCUGCGAAUUCUGCUGUAUAUCUC [U25C U26C U41A A45G], the self-cleavage is reported as 0.2. UAACAGGGGGCCACAGCAGAAGCGCCCACGUCGCAGCCCCCGACAGAUUCUGGUGAAUCUGCGAAUUCUGCUGUAUAUCUC [U25C U26C U41C U43A] gave a self-cleavage of 0.29. UAACAGGGGGCCACAGCAGAAGCGCCCACGUCGCAGCCCCCGUCAGAUACUGGUGAAUCUGCGAAUCCUGCUGUAUAUCUC [U25C U26C U41C U49A U67C] gave a self-cleavage of 0.13. Work on UAACAGGGGGCCACAGCAGAAGCGCCCACGUCGCAGCCCCCGUCAGAUUCUGGUGAAUCUGCGAAUUCUGCUGCAAAUCUC [U25C U26C U41C U74C U76A] yielded a self-cleavage of 0.05. With UAACAGGGGGCCACAGCAGAAGCGCCCACGUCGCAGCCCCUGACAGAUUCUGGUGAAUCUGCGUAUUCUGCUGUAUAUCUC [U25C U26C U43A A64U] the self-cleavage was 0.36. With UAACAGGGGGCCACAGCAGAAGCGCCCACGUCGCAGCCCCUGACAGAUUCUGGUGAAUCUGCGAUUUCCGCUGUACAUCUC [U25C U26C U43A A65U U69C U76C] the self-cleavage was 0.12. For UAACAGGGGGCCACAGCAGAAGCGCCCACGUCGCAGCCCCUGUCAGAUUCUGGUGAAUCUGCGAAUUCUGCUGCAUAUCUC [U25C U26C U74C], the self-cleavage was 0.42. UAACAGGGGGCCACAGCAGAAGCGCGCACGUCGCAGCCCCUGUCAGAUUCAGGUGAAUCUGCGAAUUCUGCUGUAUAUCUC [U25C U26G U51A] showed a self-cleavage of 0.36. Work on UAACAGGGGGCCACAGCAGAAGCGCGCACGUCGCAGCCCCUGUCAGAUUCUGGUGAAUCUGCGAAUUCAGCAGUAUAUCUC [U25C U26G U69A U72A] yielded a self-cleavage of 0.14. With UAACAGGGGGCCACAGCAGAAGCGCUCACGACGCAGCCCCUGUCAGAUUCUGGUGAGUCUGCGAGUUCUGCUGUAUAUCUC [U25C U31A A57G A65G] the self-cleavage was 0.14. Work on UAACAGGGGGCCACAGCAGAAGCGCUCACGACGCAGCCCCUGUCAGAUUCUGGUGAAUCUGCGUAUUCUGCUGUAUACCUC [U25C U31A A64U U78C] yielded a self-cleavage of 0.15. Variant UAACAGGGGGCCACAGCAGAAGCGCUCACGACGCACCGCCUGUCAGAUUCUGGUGAAUCUGCGAAUUCUGCUGUAUAUCUC [U25C U31A G36C C38G] has a self-cleavage of 0.14. For UAACAGGGGGCCACAGCAGAAGCGCUCACGACGCAGCCCCUGUCAGAUUCUAGUGAAUCUGCGAAUUCCGCUGUAUAUCUC [U25C U31A G52A U69C], the self-cleavage was 0.11. In the case of UAACAGGGGGCCACAGCAGAAGCGCUCACGACGCAGCCCCCGUCAGAUUCAGGUGAAUCCGCGAAUUCUGCUGUAUAUCUC [U25C U31A U41C U51A U60C], the self-cleavage is reported as 0.2. Work on UAACAGGGGGCCACAGCAGAAGCGCUCACGACGCAGCCCCUGCCAGGUUCUGGGGAAUCUGCGAAUUCUGCUGUAUAUCUC [U25C U31A U43C A47G U54G] yielded a self-cleavage of 0.07. With UAACAGGGGGCCACAGCAGAAGCGCUCACGACGCAGCCCCUGCCAGAUUCUGGUGAAUCUGCGUAUUCUGCUGUAUAUCUC [U25C U31A U43C A64U] the self-cleavage was 0.11. Work on UAACAGGGGGCCACAGCAGAAGCGCUCACGACGCAGCCCCUGUCAGAUUCCGGUGAAUCAGCGAAUUCUGCAGUAUACCUC [U25C U31A U51C U60A U72A U78C] yielded a self-cleavage of 0.08. In the case of UAACAGGGGGCCACAGCAGAAGCGCUCACGACGCAGCCCCUGUCAGAUUCUGGUGAAACUGCGAACUCUGCUGUAUAUCAC [U25C U31A U58A U66C U80A], the self-cleavage is reported as 0. In the case of UAACAGGGGGCCACAGCAGAAGCGCUCACGCCGCUGCCCCUGUCAGACACUGGUGAGUCUGCGAAUUCUGCUGUAUAACUC [U25C U31C A35U U48C U49A A57G U78A], the self-cleavage is reported as 0.08. With UAACAGGGGGCCACAGCAGAAGCGCUCACGCCGCAGCCCCUGUCAGAUUCUGGUGGAUCUGCGAAUUCUGCUGCUUAUCUC [U25C U31C A56G U74C A75U] the self-cleavage was 0.15. Variant UAACAGGGGGCCACAGCAGAAGCGCUCACGCCACAGCCCCUGUCAGAUCCUGGUGAAUCUGCGAAUUCUGCUGUAUAUCUC [U25C U31C G33A U49C] has a self-cleavage of 0.06.
